{"source": "ChEMBL document CHEMBL4888484", "about": "“Replenishing the malaria drug discovery pipeline: Screening and hit evaluation of the MMV Hit Generation Library 1 (HGL1) against asexual blood stage Plasmodium falciparum ,using a nano luciferase reporter read-out” (2022)", "note": "Hit rate of the full screen: of about 150,000 compounds, about 540 (0.36%) showed an effect of 50% or more. The list shows a part of the results."}
{"test_system": "Plasmodium falciparum", "assay": "Primary screen in NF54 nanoGlo assay, in single point, at 2uM, 72h; a lower Z score goes with more inhibition", "format": "functional, Erythrocyte", "conditions": "timepoint 72 hour", "units": {"% Inhibition": "%"}}
{"smiles": "CN1C[C@H]2CC[C@@H](C1)N(Cc1cccc(OCCCn3ccnc3)c1)C2", "% Inhibition": -15, "Z score": 1.45}
{"smiles": "COCC[C@H]1CCCCN1Cc1cc(C(C)C)on1", "% Inhibition": -7, "Z score": 1.43}
{"smiles": "Cc1ccc([C@@H](O)CNC(=O)NCCOc2ccccc2)o1", "% Inhibition": -6, "Z score": 0.67}
{"smiles": "O=C(Nc1ccc2c(c1)CNCC2)C1CC1c1ccc(F)c(F)c1", "note": "(stereo not drawn)", "% Inhibition": 37, "Z score": -1.36}
{"smiles": "CCCN(C)C(=O)Nc1ccc(C)cc1Br", "% Inhibition": -4, "Z score": 0.56}
{"smiles": "COCc1nc(C)nc(N2CCN(C(=O)c3cccs3)CC2)c1Cc1ccc(OC)cc1", "% Inhibition": 3, "Z score": -0.29}
{"smiles": "CC1CN(C(=O)Cn2cc(NC(C)c3ccncc3)cn2)CC(C)O1", "note": "(stereo not drawn)", "% Inhibition": -11, "Z score": 0.96}
{"smiles": "COCCN1CCC(CN(C[C@H]2CCCO2)C(=O)c2ccncc2)CC1", "% Inhibition": 5, "Z score": -1.03}
{"smiles": "COC[C@@H]1CC(F)(F)CN1C1CN(C(=O)c2ccc3c(c2)OCO3)C1", "% Inhibition": 2, "Z score": -0.28}
{"smiles": "Cc1nnnn1C[C@H](O)COCc1ccco1", "% Inhibition": -3, "Z score": 0.32}
{"smiles": "COCc1nc(C)cc(NCCc2cn3c(C)cccc3n2)n1", "% Inhibition": -7, "Z score": 0.93}
{"smiles": "COc1cccc(CNC(=O)Cn2cnc3c(-c4cccc(C)c4)nsc3c2=O)c1OC", "% Inhibition": -6, "Z score": 0.98}
{"smiles": "CC12c3ccccc3C(c3ccccc31)C1C(=O)N(c3ccccn3)C(=O)[C@H]12", "note": "(stereo partly drawn)", "% Inhibition": -14, "Z score": 1.2}
{"smiles": "Cc1nc2ccccc2n1Cc1ccc(C(=O)NCCc2ccccc2)o1", "% Inhibition": -15, "Z score": 2.8}
{"smiles": "O=S(=O)(NCc1ccc(C2OCCO2)cc1)N1CCc2ccccc2C1", "% Inhibition": -1, "Z score": 0.14}
{"smiles": "Cc1ccc2c(c1)c(-c1cc(F)cc3c1O[C@@H](CN)C3)nn2C", "% Inhibition": 1, "Z score": -0.17}
{"smiles": "Cn1ccnc1CCN1CCC([C@@H](O)CCc2ccccc2)CC1", "% Inhibition": 6, "Z score": -1.19}
{"smiles": "CCN(CC)CCN(C)C(=O)c1cnn(-c2ncc3c(n2)-c2ccc(OC)cc2CC3)c1C", "% Inhibition": -12, "Z score": 1.64}
{"smiles": "Cc1cc(CNc2cccc(C3CC(=O)NC(=O)C3)c2)ccc1F", "% Inhibition": 4, "Z score": -0.35}
{"smiles": "CCc1nnc(-c2nnc(N3CCOCC3)c3ccccc23)o1", "% Inhibition": -3, "Z score": 0.29}
{"smiles": "O=C(CN1CCN(c2ccc(F)c(F)c2)C1=O)N1CCN(c2ncccn2)CC1", "% Inhibition": -3, "Z score": 0.46}
{"smiles": "CC(C)NC(=O)CN1CCN(c2cc(C(=O)O)c3cc(NS(=O)(=O)c4ccc(F)cc4)ccc3n2)CC1", "% Inhibition": -14, "Z score": 2.45}
{"smiles": "CC(C)N(C)C(=O)C1CCN(C(=O)[C@@H]2CCc3cc(F)ccc32)CC1", "% Inhibition": -14, "Z score": 1.82}
{"smiles": "CCc1csc(CCNc2cc3nncn3c(N)n2)n1", "% Inhibition": 15, "Z score": -1.95}
{"smiles": "OC[C@@]1(CCOc2ccccc2)CCCN(c2ncnc3[nH]ccc23)C1", "% Inhibition": 0, "Z score": -0.02}
{"smiles": "CO[C@H]1CCCN(S(=O)(=O)c2cc(-c3cc(C(F)(F)F)[nH]n3)oc2C)C1", "% Inhibition": 0, "Z score": -0.04}
{"smiles": "O=C(NC[C@H]1CCCO1)c1c[nH]c2cc(Br)c(Br)cc12", "% Inhibition": 15, "Z score": -2.36}
{"smiles": "O=C(CN1C(=O)CCC1=O)Nc1cc(S(=O)(=O)N2CCCCC2)ccc1Cl", "% Inhibition": 13, "Z score": -1.7}
{"smiles": "Cc1ccc(S(=O)(=O)NCc2nc(-c3ccccc3)oc2C)cc1C", "% Inhibition": -8, "Z score": 1.01}
{"smiles": "COC(=O)CNc1nc(Oc2ccccc2)nc(Oc2ccccc2)n1", "% Inhibition": -6, "Z score": 1.19}
{"smiles": "Cc1ccc(-c2nc(NC(=O)COc3ccccc3F)sc2NC(=O)c2ccco2)cc1", "% Inhibition": -13, "Z score": 1.57}
{"smiles": "Cc1ccc(NC(=O)N(CCN2CCCC2)CC(=O)N2CCc3sccc3[C@@H]2COc2ccc(C(C)C)cc2)cc1", "% Inhibition": 3, "Z score": -0.35}
{"smiles": "Cn1c(=O)c2c(ncn2[C@H]2CCN(C3CC3)C2=O)n(C)c1=O", "% Inhibition": -4, "Z score": 0.8}
{"smiles": "COCc1cc(N2CC[C@](O)(C3CC3)[C@@H](C)C2)ncn1", "% Inhibition": -9, "Z score": 1.46}
{"smiles": "CNC(=O)CCN1CCOCC(F)(F)C1", "% Inhibition": -2, "Z score": 0.22}
{"smiles": "O=C(CN1N=C(c2ccccc2)c2ccccc2S1(=O)=O)Nc1ccc(Cl)cc1", "% Inhibition": -11, "Z score": 1.04}
{"smiles": "Cc1cc2[nH]c(CN3CCCC[C@@H]3CCN3CCCC3=O)cc(=O)n2n1", "% Inhibition": -6, "Z score": 0.71}
{"smiles": "Nc1c2c(-c3ccccc3F)nc(NCCc3cccs3)nc2nn1-c1ccc(Cl)c(Cl)c1", "% Inhibition": -5, "Z score": 0.58}
{"smiles": "O=S(=O)(c1ccccc1)N1CC[C@@H]2COCCN(Cc3cccnc3)[C@@H]2C1", "% Inhibition": 3, "Z score": -0.35}
{"smiles": "CC(NS(=O)(=O)N1CCCCC1C)c1cccs1", "note": "(stereo not drawn)", "% Inhibition": -14, "Z score": 2.2}
{"smiles": "C(=Cc1coc(-c2ccccc2)n1)c1ccncn1", "% Inhibition": -12, "Z score": 1.41}
{"smiles": "COC(=O)N1CC2C=CC1C(c1noc(C)n1)C2", "note": "(stereo not drawn)", "% Inhibition": 1, "Z score": -0.09}
{"smiles": "Cc1cc2c(cc1S(=O)(=O)N1CCC[C@H](C(=O)NCCCc3ccccc3)C1)OCC(=O)N2", "% Inhibition": -14, "Z score": 1.97}
{"smiles": "CCC[C@H](C)NC(=O)NCc1cc(CC)no1", "% Inhibition": -12, "Z score": 1.29}
{"smiles": "Cn1c(N2CCC[C@H](C(=O)NCCN3CCN(c4ccccc4F)CC3)C2)cc(=O)n(C)c1=O", "% Inhibition": -5, "Z score": 0.8}
{"smiles": "O=S(=O)(CC1CCOC1)NC1CC1C1CCCCC1", "note": "(stereo not drawn)", "% Inhibition": -4, "Z score": 0.71}
{"smiles": "CCN(c1ccc(C(=O)N(C)C2(C#N)CCC2)cc1)C(C)C", "% Inhibition": 41, "Z score": -5.48}
{"smiles": "Cc1noc(CN(C)C(=O)c2cccc(-c3ccc(N(C)C)cc3)c2)n1", "% Inhibition": 0, "Z score": 0}
{"smiles": "CCC[C@@]1(C(=O)O)CCCN1C(=O)CCc1c(C)noc1C", "% Inhibition": -11, "Z score": 1.36}
{"smiles": "Cc1cc(C(=O)N2CCCC2)c(C)s1", "% Inhibition": -1, "Z score": 0.25}
{"smiles": "C[C@H]1COCCN1CC(=O)Nc1cc(C(C)(C)C)no1", "% Inhibition": 21, "Z score": -2.82}
{"smiles": "Cc1cnc(CNC(=O)c2cnc(N3CCOCC3)nc2)cn1", "% Inhibition": -8, "Z score": 1.26}
{"smiles": "C[C@@H]1Oc2ccc(NC(=O)c3ccc(Cl)c(N4CCCC4=O)c3)cc2NC1=O", "% Inhibition": -4, "Z score": 0.55}
{"smiles": "COc1ccccc1CC(=O)N1CCC1", "% Inhibition": -7, "Z score": 0.98}
{"smiles": "CC[C@@]1(C)CCCN(C(=O)c2nc3cccnc3[nH]2)C1", "% Inhibition": -1, "Z score": 0.11}
{"smiles": "COc1cccc(C2=C[C@@H](c3ccccc3)N3N=NNC3=N2)c1", "% Inhibition": 8, "Z score": -0.98}
{"smiles": "C[C@H]1c2cc(Cl)c(Cl)cc2CCN1C(=O)CCn1cncn1", "% Inhibition": -1, "Z score": 0.1}
{"smiles": "COC(=O)[C@@H](O)C1CCN(C(=O)OC(C)(C)C)CC1", "% Inhibition": -7, "Z score": 1.2}
{"smiles": "CO[C@@]12CC[C@@H](NC(=O)COC(C)C)C[C@@H]1N(C(=O)c1ccoc1)CC2", "% Inhibition": -10, "Z score": 1.88}
{"smiles": "COC[C@H](NC(=O)N1CCC(c2nc3cccc(C)c3o2)CC1)C1CC1", "% Inhibition": -6, "Z score": 1.22}
{"smiles": "CCOc1cc(C(=O)N(C)C[C@H]2COc3ccccc3O2)n[nH]1", "% Inhibition": -1, "Z score": 0.08}
{"smiles": "CCOC(=O)N1CCC(N2C[C@@]34C=C[C@@H](O3)C(C(=O)Nc3ccc(C)c(F)c3)[C@@H]4C2=O)CC1", "note": "(stereo partly drawn)", "% Inhibition": -6, "Z score": 0.83}
{"smiles": "CCCN(C[C@H]1CCOC1)C(=O)Nc1ccccc1Br", "% Inhibition": 4, "Z score": -0.46}
{"smiles": "CCOC(=O)N1CCN(C(=O)c2cn3cc(-c4ccc(C(F)(F)F)cc4)ccc3n2)CC1", "% Inhibition": -14, "Z score": 1.71}
{"smiles": "CNC(=O)N1CCC(CC(F)(F)F)CC1", "% Inhibition": -6, "Z score": 0.6}
{"smiles": "CCn1ncc(NC(=O)Cn2nc(C)c(-c3cnc4ccccc4c3)c2C)n1", "% Inhibition": -8, "Z score": 1}
{"smiles": "CCOCC(=O)NC1CCN(Cc2cnc(C)s2)CC1C", "note": "(stereo not drawn)", "% Inhibition": 5, "Z score": -0.69}
{"smiles": "O=C(CCc1c[nH]c2ccccc12)Nc1ccccc1-n1cncn1", "% Inhibition": -2, "Z score": 0.23}
{"smiles": "Cc1cc(C)c2[nH]c(C(=O)N(C)[C@@H](C)c3c(C)n[nH]c3C)c(C)c2c1", "% Inhibition": -3, "Z score": 0.45}
{"smiles": "CN(C)c1ccccc1NCc1cnc2cnccn12", "% Inhibition": -15, "Z score": 2.51}
{"smiles": "CC(NCC1CC(O)CN1Cc1ccccc1)c1cnn(C)c1", "note": "(stereo not drawn)", "% Inhibition": -3, "Z score": 0.62}
{"smiles": "CCCCN(C)c1ncc(Cl)c(C(=O)N2CC[C@H](C(N)=O)C2)n1", "% Inhibition": 0, "Z score": 0.01}
{"smiles": "Cc1ccc([C@]2(C)NC(=O)N(Cc3cccc(F)c3F)C2=O)o1", "% Inhibition": 0, "Z score": -0.06}
{"smiles": "C1=CC2CC1CC2CN1CCC(c2ccn[nH]2)CC1", "note": "(stereo not drawn)", "% Inhibition": -2, "Z score": 0.28}
{"smiles": "C[C@@H](CCO)Nc1ncccc1C(F)(F)F", "% Inhibition": 5, "Z score": -0.92}
{"smiles": "CCN(CC)S(=O)(=O)c1cc(-c2nc(C)cs2)n(CC(=O)N2CCCCC2)c1", "% Inhibition": 0, "Z score": 0.03}
{"smiles": "CC(=O)N1CCC(C(=O)OCCc2ccc(F)cc2)CC1", "% Inhibition": -3, "Z score": 0.37}
{"smiles": "CC(C)(C)c1ncc(CN2CCC(O)(C(F)(F)F)CC2)s1", "% Inhibition": -4, "Z score": 0.58}
{"smiles": "c1cnc(NCc2cc3n(n2)CCN(Cc2ccoc2)C3)cn1", "% Inhibition": -11, "Z score": 1.99}
{"smiles": "CCN(CC(C)(C)O)C(=O)C1CC1c1cccc2ccccc12", "note": "(stereo not drawn)", "% Inhibition": -5, "Z score": 0.73}
{"smiles": "CC1CC(C)(C)C(CNC(=O)c2cnnn2C)C1NC(=O)c1cnnn1C", "note": "(stereo not drawn)", "% Inhibition": -2, "Z score": 0.22}
{"smiles": "O=C1C[C@@H](c2ccccc2)NCCCCCCN1", "% Inhibition": -16, "Z score": 2.32}
{"smiles": "Cc1cc2c(N3CC[C@@]4(CCCN(C5CCCCC5)C4=O)C3)ncnc2s1", "% Inhibition": -30, "Z score": 3.97}
{"smiles": "Cc1cn2nc(N[C@H]3CCN(C4CCCC4)C3)ccc2n1", "% Inhibition": 2, "Z score": -0.44}
